The supplement of paper PMC10338343
± gives the standard deviation. The list shows a part of the results, in another mix than the full data.

System: MIWI (PIWIL1) piRISC loaded with L1MC piRNA (30 nt)
Assay: pre-steady-state target cleavage rate (min^-1); MIWI and MILI are mouse PIWI proteins and EfPiwi is from a freshwater sponge; tags in brackets are library labels; higher = faster piRNA-guided slicing of the target
Conditions: guide: L1MC piRNA 5'p-UAACUAAAUACUAUGCAAGCUGUAGGUCCU
Method in brief: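 Cleave-'n-Seq used a transcribed, DNA-blocked target RNA library at 0.1 nM and active affinity-purified piRISC with one synthetic guide at 1 nM, with or without 500 nM GTSF1 partner protein, in HEPES–potassium acetate buffer at 33 °C for 0–8 or 0–960 min. Uncleaved targets were sequenced and normalised to depth and to weakly complementary targets, and three trials were pooled with k3 capped at 0.0001 min^-1. The pre-steady-state cleavage rate was estimated by a burst-and-steady-state fit.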

[1] = auxiliary factor: 500 nM mouse GTSF1
[2] = auxiliary factor: none (no GTSF1)

| Sequence | pre-steady-state target cleavage rate [1] | pre-steady-state target cleavage rate [2] |
| --- | --- | --- |
| AGGACCUACAGCUUGCAUAGUAUUUAUUA | 0.281 ± 0.041 | 0.00551 ± 0.0029 |
| AGGACCUACAGCUUGCAUAGUAAAUAGUUA | 0.673 ± 0.05 | 0.0172 ± 0.0063 |
| UCGACCUACAGCUUGCUUAGUAUUUUGUUA | 0.977 ± 0.06 | 0.0159 ± 0.0041 |
| UCGACCUAGAGGUUGCAUAGUAUUUAGUUA | 0.822 ± 0.11 | 0.0216 ± 0.0032 |
| UCCUGCUACAGCUUGCAUAGUAUUUUGAUA | 0.301 ± 0.037 | 0.00633 ± 0.0021 |
| UCCUGGAUGACCUUGCAAAGUAUUUAGUUA | 0.0697 ± 0.011 | 0.00406 ± 0.0018 |
| UCCUGGAUGAGCUAUGCAUAGUAUUUAGUUA | 0.636 ± 0.033 | 0.0145 ± 0.0038 |
| UCCUGGUACAGCCUGCAUAGUAUUUAGUUA | 0.549 ± 0.055 | 0.0521 ± 0.01 |
| UCCUGGAUCAGCUGGCAUAGUAUUUAGUUA | 0.833 ± 0.053 | 0.0168 ± 0.0051 |
| UCCACUACAGCUUGCAUAGUAUUUAGUUA | 1.07 ± 0.044 | 0.0602 ± 0.0096 |
| UCCUGCUACAGCUUGCAUACUAUUUAGUUA | 0.364 ± 0.018 | 0.0347 ± 0.0053 |
| UCCUCCUACAGCUUGCAGAGUAUUUAGUUA | 0.892 ± 0.063 | 0.0211 ± 0.0046 |
| UCCUGCAUCAGCUUGCAUAGUAUUUACAAA | 0.277 ± 0.039 | 0.00345 ± 0.0029 |
| UCGACGAUCAGCUUGCAUAGUAUUUACAAA | 0.415 ± 0.044 | 0.00606 ± 0.0021 |
| UCCUGCUACAGCAUGCAUAGUAUUUUGUUA | 0.664 ± 0.07 | 0.00787 ± 0.0017 |
| UCCUCGUACAGCUUGCAUAGUAUUUAGAUA | 0.413 ± 0.034 | 0.0216 ± 0.004 |
| AGGACCUACAGGAAGCAUAGUAUUUAGUAA | 0.683 ± 0.067 | 0.00458 ± 0.0026 |
| UCCUGCUACAGCUUGGAUAGUAUUUAGUAA | 0.587 ± 0.057 | 0.0136 ± 0.0037 |
| UGGACCUACAGCUAGCAUAGUAUUUAGAUA | 0.508 ± 0.042 | 0.00987 ± 0.0025 |
| UCCUGGAUGUGCUUGCAUAGUUUUUAGUAA | 0.0145 ± 0.0059 | 0.00835 ± 0.0023 |
| UCCUGCUACUGCUUGCAUAGUAUUUAGAAA | 0.134 ± 0.023 | 0.00379 ± 0.0024 |
| UCCUGGUACACCUAGCAUAGUAUUUAGUUA | 0.278 ± 0.063 | 0.00414 ± 0.0028 |

| Sequence | pre-steady-state target cleavage rate [1] | pre-steady-state target cleavage rate [2] |
| --- | --- | --- |
| UCCUGGUACACGCUUGCAUAGUAUUUAGUUA | 0.216 ± 0.046 | 0.028 ± 0.0062 |
| UCCUCGAUCAGCUUGCAUAGUAUUUACAAA | 0.4 ± 0.047 | 0.00354 ± 0.0027 |
| UCCACCUACUGCUUGCAUUGUAUUUAGUUA | 0.743 ± 0.025 | 0.0287 ± 0.0065 |
| UCCUGGAUCAGCUUGCAUACUAUUUAGAUA | 0.0405 ± 0.0092 | 0.00727 ± 0.0031 |
| UCCUGGUUCUGCUUGCAUAGUAUUUAGUUA | 0.785 ± 0.049 | 0.0365 ± 0.0078 |
| UCGACCUACAGCAUGCUUAGUAUUUAGUUA | 0.915 ± 0.057 | 0.0113 ± 0.0023 |
| UCCUGGAUGUCCUUGCAUAGUAUUUAGUA | 0.0102 ± 0.0043 | 0.004 ± 0.0026 |
| UCCACCUUCAGCUUGCAUAGUAUUUUGUUA | 0.615 ± 0.059 | 0.021 ± 0.0032 |
| AGGACCUACAGCUUGCAAUGUAUUUAGUAA | 0.332 ± 0.028 | 0.00409 ± 0.0026 |
| UCCACCUACACCUUGCAAAGUAUUUAGUUA | 0.933 ± 0.036 | 0.0329 ± 0.006 |
| UCCUGGUACAGCUUGCAUAGUAUUGUAGUUA | 0.248 ± 0.031 | 0.0142 ± 0.0037 |
| UCCUGGAUGAGCUUGCAUAGUAUUUAGAUA | 0.341 ± 0.046 | 0.033 ± 0.0083 |
| UGGAGCUAGAGCUUGCAUAGUAUUUAGUUA | 0.707 ± 0.048 | 0.0402 ± 0.0068 |
| UCCUGGAUCAGCUUGCAUAGUAUUUUCUUA | 0.119 ± 0.023 | 0.0119 ± 0.0036 |
| UCGACCUACAGCUUGUCAUAGUAUUUAGUUA | 0.742 ± 0.083 | 0.00458 ± 0.0029 |
| UCCUGGAACAGCUAGCUUAGUAUUUAGUUA | 0.568 ± 0.034 | 0.0118 ± 0.0029 |
| UCCUGGAACAGCUUGCAAAGAAUUUAGUUA | 0.278 ± 0.035 | 0.0157 ± 0.0055 |
| UCCUGGAACAGCUUGCAUAGUAUAAUGUUA | 0.196 ± 0.029 | 0.0128 ± 0.0033 |
| UCCUGGAACAGUUUGCAUAGUAUUUAGUUA | 1.2 ± 0.044 | 0.0699 ± 0.013 |
| UCCUCCUACAGCUUGCAUAGAAUAUAGUUA | 0.289 ± 0.029 | 0.00715 ± 0.0024 |
| UCCUGGUUCAGCUUGCAUAGUAUUUAGUUA | 0.972 ± 0.042 | 0.0721 ± 0.016 |
| UCCUCCUACAGCUAGCAUAGUAUUAAGUUA | 0.603 ± 0.03 | 0.00394 ± 0.0022 |

| Sequence | pre-steady-state target cleavage rate [1] | pre-steady-state target cleavage rate [2] |
| --- | --- | --- |
| UCGACCUACAGCUUGCAUUGAAUUUAGUUA | 0.251 ± 0.021 | 0.00707 ± 0.0023 |
| UCCACCUACCGCUUGCAUAGUAUUUAGUUA | 1.11 ± 0.05 | 0.0544 ± 0.0086 |
| ACGACCUACAGCUUGCAUAGUUUUUAGUUA | 0.561 ± 0.027 | 0.0565 ± 0.013 |
| UGGUCCUACAGCUUGCAUAGUAAUUAGUUA | 0.68 ± 0.034 | 0.0288 ± 0.0053 |
| UGGACCUACAGCUAGCAUAGUAUUAAGUUA | 0.955 ± 0.071 | 0.01 ± 0.0024 |
| UCGACCUAGUCCUUGCAUAGUAUUUAGUAA | 0.257 ± 0.033 | 0.00756 ± 0.0017 |
| UCCUGGAACUGCUUGCUUAGUAUUUAGUUA | 0.509 ± 0.026 | 0.0163 ± 0.0047 |
| UCGACCUACAGCUUGCAUUGUAUUUACUUA | 0.49 ± 0.028 | 0.0226 ± 0.0052 |
| AGGACCUACAGCUUGCAUAGUAAUUAGUAA | 0.587 ± 0.061 | 0.0377 ± 0.011 |
| AGGACCUACAGCUUGCUAAGUAUUUAGUUA | 0.317 ± 0.029 | 0.00438 ± 0.0022 |
| UCCUCCUACUCCUUGCAUAGUAUUUAGUUA | 1.27 ± 0.038 | 0.0448 ± 0.0077 |
| UCCUGGAUGAGCUUGCAUAGUAAUUUGUUA | 0.184 ± 0.042 | 0.0103 ± 0.0031 |
| UGGACCUACAGCUUGCCAUAGUAUUUAGUUA | 0.242 ± 0.032 | 0.00472 ± 0.0025 |
| UCCUGGUACAGCAUGCAUAGUAUAUAGUUA | 0.559 ± 0.07 | 0.0113 ± 0.003 |
| UCCUGGAUGAGCUUGCAAAGUAAUUAGUUA | 0.0947 ± 0.0094 | 0.00912 ± 0.0032 |
| UCCUGCUACAGCUUGCAUAGUAUUUCAGUUA | 0.556 ± 0.069 | 0.01 ± 0.0034 |
| UCGACCUACAGCUUGCAUAGUAUUAACUUA | 0.248 ± 0.032 | 0.00848 ± 0.0033 |
| UCGACCUACAGCUUGCUUAGUUUUUAGUUA | 0.208 ± 0.016 | 0.0151 ± 0.0026 |
| UCCUGGAUCAGCUUGCAAUGUAUUUAGUAA | 0.0391 ± 0.0083 | 0.00427 ± 0.0027 |
| UCCACCUACAGCUUGCAUAGUAUAAAGUUA | 0.401 ± 0.039 | 0.0121 ± 0.0029 |
| UCCUGCUUCAGGUUGCAUAGUAUUUAGUUA | 0.854 ± 0.033 | 0.0169 ± 0.0032 |
